Test results from PubChem BioAssay AID588453 (National Center for Advancing Translational Sciences (NCATS), 2011).
“And” between values parts separate entries of the source, which are not always exact repeats. Identical values can stand only once. The whole screen tested about 390,000 compounds, of which about 4,000 (1%) were called active. Inconclusive means that the source gave no clear call. Such entries were picked first, then a sample of the others. The call rests on the fitted dose curve; in most records, active means well fitted inhibition curve with a large enough effect; inconclusive means small, poorly fitted or top-dose-only effect; inactive means no such curve, though single readings can be large or run the other way. Potencies beside an inconclusive call are fits to weak or partial responses and may not hold up.

Each compound was assayed against Thioredoxin reductase 1, cytoplasmic (Rattus norvegicus) (UniProt O89049) (assay: qHTS Assay for Inhibitors of Mammalian Selenoprotein Thioredoxin Reductase 1 (TrxR1): qHTS). Conditions: recombinant rTrxR1, NADPH fluorescence consumption, selenite substrate; series mostly up to 114 µM; activity change, negative = inhibition: at the top concentration.
UniProt O89049, sequence (O89049 whole entry, looked up): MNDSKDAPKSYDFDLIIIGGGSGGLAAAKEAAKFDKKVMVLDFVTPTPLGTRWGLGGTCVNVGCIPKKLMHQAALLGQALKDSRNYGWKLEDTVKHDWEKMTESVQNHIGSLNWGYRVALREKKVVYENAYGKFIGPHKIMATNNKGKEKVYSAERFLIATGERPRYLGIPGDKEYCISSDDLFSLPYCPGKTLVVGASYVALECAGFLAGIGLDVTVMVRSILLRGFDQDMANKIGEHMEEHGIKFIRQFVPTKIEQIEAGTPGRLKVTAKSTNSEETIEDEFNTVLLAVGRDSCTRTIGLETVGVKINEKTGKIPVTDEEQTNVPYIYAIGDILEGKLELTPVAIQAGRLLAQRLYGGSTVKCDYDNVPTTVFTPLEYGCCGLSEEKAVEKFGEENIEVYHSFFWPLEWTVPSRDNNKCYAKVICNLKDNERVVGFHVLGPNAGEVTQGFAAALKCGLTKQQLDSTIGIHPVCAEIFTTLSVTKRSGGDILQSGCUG
Excerpt: The selenoprotein thioredoxin reductase (TrxR; EC 1.8.1.9) is a FAD containing homodimeric pyridine nucleotide-disulfide oxidoreductase with many cellular roles. Together with NADPH and its prime substrate thioredoxin (Trx), the enzyme forms the core of the Trx system. The mammalian Trx system exerts a wide spectrum of functions including redox regulation, antioxidant defense, regulation of transcription factors as well as support of cell growth and replication. Many of these functions involve the reduction of Trx, which may subsequently reduce a number of different substrates including ribonucleotide reductase, peroxiredoxins or NFkB. Mammalian TrxR itself also has a broad substrate specificity, reducing both protein and non-protein substrates, including low molecular weight compounds such as dehydroascorbate, lipoic acid, ubiquinone, and juglone. In addition, several drugs in clinical use for anticancer treatment are indeed known to target TrxR1.
This BioAssay is a validation of an NADPH fluorescence-based, dual-purpose qHTS rTrxR1 assay designed to find potential inhibitors and substrates of rTrxR1. For this particular BioAssay, actives are potential inhibitors. See related BioAssay for substrate data deposition.
NIH Molecular Libraries Probe Production Network [MLPCN]
NIH Chemical Genomics Center [NCGC]
Assay Provider: Elias Arner, Karolinska Institute
Assay protocol: 2 uL of reagents (buffer in column 4 as negative control and 90 nM rTrxR1 in columns 1-3 and 5-48) were dispensed into Greiner black solid-bottom 1,536-well assay plates, followed by 1 uL of NADPH (400 uM final concentration) to each well. The plates were centrifuged at 1000 rpm for 15 seconds and subsequently incubated for 5 min at room temperature (~22 deg C) to allow for rTrxR1 reduction. Compounds (23 nL) were then transferred via Kalypsys pin tool equipped with 1536-pin array (10 nL slotted pins, V&P Scientific, San Diego, CA). In addition, a duplicate 2-fold serial dilution of the control compounds auranofin, a known gold-based TrxR1 inhibitor, and juglone (5-hydroxy-1,4-naphthoquinone), a natural TrxR1 substrate, were pin-transferred to columns 2 and 3, respectively. After incubation for 15 min at room temperature (~22 deg C), 1 uL of selenite (400 uM final concentration) were dispensed to each well. The plate was immediately transferred to a ViewLux high-throughput CCD imager (PerkinElmer), wherein kinetic measurements of NADPH fluorescence (Ex 340 nm, Em 450 nm) were acquired (8 minute kinetic read, see Table 1). Read 1 was utilized to assess the capacity of a compound to serve as an rTrxR1 substrate, i.e. a decrease in NADPH fluorescence compared to the no-compound background is an indication of a substrate behavior for that particular compound. For inhibitory activity of a compound, delta values, computed as the difference in fluorescence intensity between the first and last reads of an 8-minute time kinetic window, were used. All reagents were diluted in an assay buffer consisting of 50 mM Tris-HCl, pH 7.5, 2 mM EDTA, and 0.01% Tween-20.
Throughout the screen, reagent bottle and all liquid lines were made light-tight to minimize reagent degradation. All screening operations were performed on a fully integrated robotic system (Kalypsys, San Diego, CA) containing one RX-130 and two RX-90 anthropomorphic robotic arms (Staubli, Duncan, SC). Library plates were screened starting from the lowest and proceeding to the highest concentration, and a 'double-pinning' step of the highest concentration was required to access higher concentrations of compounds. Vehicle-only plates, with DMSO being pin-transferred to the columns 5-48, were inserted uniformly at the beginning and the end of each library in order to monitor and record any shifts in the background, which can be affected by reagent dispensers or loss in enzyme activity over time. […]
Further: nearly all actives have a fitted effect of over 65% in size.
On the % scale 0 is the no-effect control and ±100 the full control effect; potency means the concentration at half of the fitted maximal effect; tags describe the fitted curve by direction and shape.

Row | Compound | Potency | activity change, negative = inhibition
1 | Cc1oc(-c2ccccc2F)nc1CS(=O)(=O)CC(=O)NCc1ccco1 | inconclusive: 8.91 µM [inhibitor, partial curve] | –
2 | COc1ccccc1C(=O)Oc1ccc2c(c1)O/C(=C\c1ccncc1)C2=O | inconclusive: 50.1 µM [inhibitor, single point] | –
3 | COc1cc(NC(=O)c2cccs2)ccc1NC(=O)Cc1ccccc1 | – | inactive: -15.5%
4 | Cc1cc(O)c(/C=N/c2ccccn2)c(=O)o1 | inconclusive: 10 µM [inhibitor, single point] | –
5 | NC(=S)NN=C1c2ccccc2-c2c(F)c(F)c(F)c(F)c21 | active: 56.2 µM | –
6 | Cc1ccc(C(=O)C2=C(O)C(=O)N(Cc3cccnc3)C2c2ccc(OC(C)C)cc2)o1 (stereo not drawn) | inconclusive: 50.1 µM [inhibitor, partial curve] | –
7 | O=c1c(-c2ccco2)[n+]([O-])c2ccccc2n1OCc1ccccc1 | inconclusive: 12.6 µM [inhibitor, partial curve, poor fit] | –
8 | COc1cccc(CN2CC(C(=O)NCc3ccc(C)o3)CCC2=O)c1 (stereo not drawn) | inconclusive: 56.2 µM [inhibitor, partial curve, poor fit] | –
9 | O=C(CSC(=S)N1CCOCC1)c1cc2ccccc2oc1=O | inconclusive: 89.1 µM [inhibitor, single point] | –
10 | Cc1cccc(-c2nc3ccccc3c(=O)n2NC(=S)N(C)C)c1 | inconclusive: 15.8 µM [inhibitor, partial curve, poor fit] | –
11 | O=C(NCC1CCCO1)C(c1cccs1)N(Cc1ccccc1Cl)C(=O)c1ccc(-c2ccccc2)[nH]1 (stereo not drawn) | inconclusive: 28.2 µM [inhibitor, single point] | –
12 | C=C1CCN(C(Cc2ccccc2)C(=O)O)S(=O)(=O)c2ccccc21 (stereo not drawn) | inconclusive: 25.1 µM [inhibitor, single point] | –
13 | Cc1cc(NC(=O)Cc2cccs2)no1 | inconclusive: 3.98 µM [inhibitor, full curve] | –
14 | CCOc1cccc2cc(-c3nnc(Nc4ccc(F)c(Cl)c4)s3)c(=O)oc12 | – | inactive: 27.8% [at 57.1 µM]
15 | Cc1ccc(Cl)cc1NC(=O)CN(C)S(=O)(=O)c1ccc2c(c1)n(C)c(=O)c(=O)n2C | inconclusive: 89.1 µM [inhibitor, single point] | –
16 | COc1ccc(C(=O)CSc2nnc(-c3ccco3)n2CC2CCCO2)cc1 (stereo not drawn) | inconclusive: 70.8 µM [inhibitor, partial curve] | –
17 | COc1cccc(NC2=CC(=O)CC(C)(C)C2)c1 | – | inactive: 10.1%
18 | CCOc1ccccc1NC(=O)c1nc(S(=O)(=O)Cc2ccccc2)ncc1Cl | active: 7.94 µM | –
19 | Cc1cccc(/C=N/n2c(-c3ccccc3)n[nH]c2=S)c1O | inconclusive: 8.91 µM [inhibitor, full curve, poor fit] | –
20 | COC(=O)c1ccccc1NC(=O)N1CSC[C@H]1C(=O)OC | inconclusive: 35.5 µM [inhibitor, single point] | –
21 | Cc1ccc2nc3c(cc(C(=O)NCCCn4ccnc4)n3C)c(=O)n2c1 | inconclusive: 70.8 µM [inhibitor, single point] | –
22 | N#C/C(=C/c1ccc(N2CCOCC2)o1)c1ccc(Br)cc1 | active: 11.2 µM | –

Row | Compound | Potency | activity change, negative = inhibition
23 | CCCN1CCC2(CC1)NC(C(=O)O)Cc1c2[nH]c2ccccc12 (stereo not drawn) | inconclusive: 28.2 µM [inhibitor, partial curve, poor fit] | –
24 | Fc1ccc(NC(=S)Nc2cccnc2)cc1Cl | inconclusive: 35.5 µM [inhibitor, partial curve] | –
25 | Oc1c(Br)cc(Br)cc1-c1nc2ccccc2s1 | inconclusive: 31.6 µM [inhibitor, partial curve, poor fit] | –
26 | COc1ccc(S(=O)(=O)N(C)CC(=O)N2CCCCCC2)cc1 | – | inactive: 12.6% [at 57.1 µM]
27 | Cc1ccc(NC(=O)CCNC(=O)Nc2ccccc2)cc1S(=O)(=O)N(C)C | – | inactive: 16.9%
28 | CC(C)c1[nH]c(=O)c(C#N)c2c1CSC(C)(C)C2 | inconclusive: 25.1 µM [inhibitor, single point] | –
29 | Cc1ccc(N2C(=O)CC(Sc3ccccc3C(=O)O)C2=O)cc1 (stereo not drawn) | inconclusive: 89.1 µM [inhibitor, single point] | –
30 | COc1ccc(OC)c(NC(=O)Cn2c(=O)n(CC(=O)NCc3ccco3)c(=O)c3ccccc32)c1 | inconclusive: 39.8 µM [inhibitor, partial curve, poor fit] | –
31 | O=C(CCc1ccc(O)cc1)c1c(O)cc(O)cc1O | active: 14.1 µM and active: 10 µM | –
32 | CCOC(=O)C1=C(C)N=c2s/c(=C\c3ccc(OCC(=O)O)cc3)c(=O)n2C1c1ccc(Cl)cc1 (stereo not drawn) | inconclusive: 44.7 µM [inhibitor, partial curve] | –
33 | COc1cccc(C2=CC(c3ccc(N(C)C)cc3)n3nnnc3N2)c1 (stereo not drawn) | inconclusive: 56.2 µM [inhibitor, partial curve, poor fit] | –
34 | O=c1c(Cl)c(Nc2cccc(Cl)c2)cnn1-c1nc2ccccc2s1 | inconclusive: 70.8 µM [inhibitor, partial curve] | –
35 | N/C(=N\OC(=O)c1cccs1)c1ccccc1 | – | inactive: 13.3%
36 | Fc1ccc(F)c(C2=NNC(=NCC3CCCO3)SC2)c1 (stereo not drawn) | – | inactive: 2.67%
37 | O=C1C(Cc2ccccc2)NC(=S)N1Cc1ccccc1 (stereo not drawn) | – | inactive: 20.6%
38 | O=C1CN(C(=O)c2ccco2)c2ccccc2N1 | inconclusive: 12.6 µM [inhibitor, partial curve, poor fit] | –
39 | O=c1[nH]c2cc([N+](=O)[O-])c([N+](=O)[O-])cc2[nH]c1=O | inconclusive: 8.44 µM [inhibitor, partial curve] | –
40 | O=C1CC(Sc2nnc(-c3ccccc3)o2)C(=O)N1c1ccccc1 (stereo not drawn) | active: 7.08 µM | –
41 | CCOc1cc(/C=C2/C(=O)ON=C2C)ccc1OCc1ccccc1 | inconclusive: 56.2 µM [inhibitor, partial curve, poor fit] | –
42 | O=S(=O)(c1ccc(-c2csc(Nc3ccc(F)cc3)n2)cc1)N1CCCC1 | – | inactive: 10.5%
43 | Cc1cccc(C2=NN(c3ccccc3)[C@H](CO)[C@H]2c2ccc(Cl)cc2)c1 | inconclusive: 100 µM [inhibitor, single point] | –
